# Results reported in the supplement of paper PMC11417369.
# ± gives the standard deviation of the averaged measurements. Some of the results follow.
# Tested on: PfAP2-I AP2 domain 3 (GST-tagged)
# Assay: gcPBM binding intensity (ln(normalized median fluorescence intensity)); higher = stronger DNA binding
# In short: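 The highest Masliner-normalised natural-log median intensity across replicate spots of either probe orientation is reported as binding intensity. GST-tagged P. falciparum DNA-binding domains expressed in E. coli were applied for 1 h to an Agilent 4 × 180k array of primer-extended double-stranded 36-bp intergenic genomic probes plus negative controls, and bound protein was detected with Alexa488 anti-GST antibody and scanned at 488 nm.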
row,Sequence,gcPBM binding intensity (ln)
1,ACTAAAAGATATATAATTTCTTTCTTATTTATTTTT [CACACA_negctrl_site842],7.43 ± 0.56
2,TTATTCATATTATCATGTACTTATATATATTGTCAT [XGTACX_site2231],7.72 ± 0.55
3,AAAAATTTAAGTGGGGGTACATTTTTTTAACACCTT [XGTACX_site1093],8.65 ± 0.35
4,AACAAACACGGACACACACACACACTAGAATGATTA [CACACA_site5364],8.14 ± 0.28
5,ATATTTAAATGTAATACATGCAAATTTGAACATTTT [TGCATGCA_site736],7.97 ± 0.68
6,TAATATATTAACATGGGTACATATTATTTCATGTGT [XGTACX_site5985],7.71 ± 0.33
7,AAAAAAAAAAAAATCACACATATGTATTTATATATA [CACACA_site5790],7.51 ± 0.34
8,CACATATATATGTGTGCATGTTGTATTATATATTTA [TGCATGCA_site632],8.69 ± 0.46
9,ATAATTACAAAATAAACACACATATAGATTTATATG [CACACA_site6343],7.6 ± 0.45
10,TACATAATACATATAACACACACAATTATACATAAA [CACACA_site9060],7.92 ± 0.36
11,ATATAATTAAAATGCTCACACACATAAAAAAAAATT [CACACA_site2148],7.74 ± 0.51
12,GTACATATATACATTACACACGGTTTGATTTAAAAA [CACACA_site3379],7.96 ± 0.59
13,ATTTTATTTTTTAAAGGTACAGTTACAGCTTATATA [XGTACX_site7513],7.79 ± 0.34
14,TCTTTTAAAAAAAAAGGAGGAACATAAAAAGTAGAA [XGTACX_negctrl_site272],8.13 ± 0.6
15,ATAATTAACAAATACACACACACACCCCCACAAAAA [CACACA_site518],10.36 ± 0.057
16,AAATTAAAATATAATACACACATAAAAAAAAAAAAA [CACACA_site4183],8.05 ± 0.78
17,TATATATTTTTTTTTTGTACTCACAATATATGTATG [XGTACX_site8024],7.92 ± 0.39
18,AGTATTCATAAAAATACACACATGGAAAAATAAACT [CACACA_site6796],8.06 ± 0.69
19,TGTATAAGTATTAATACACACACAAAATAATAAAAA [CACACA_site9156],7.93 ± 0.64
20,TACTTACATTATTTATTTATATAAAAAGTTAATTAT [XGTACX_negctrl_site433],7.55 ± 0.3
21,TTTATTAGTAATTATACACACATATAAAATGAATAA [CACACA_site6754],7.67 ± 0.52
22,TATATTTATAGGTACACACACACATATAAATAAATA [CACACA_site6345],8.13 ± 0.18

row,Sequence,gcPBM binding intensity (ln)
1,ATAAAATTATATTTTGCATGCAGGCCTTTTTCTTAA [TGCATGCA_site1030],8.08 ± 1.1
2,AAAAAAAAAAAAAACACACACATATATATATATATA [CACACA_site1891],9.59 ± 0.35
3,TTCCAAACCTCATTATGGAAAATAAAAAAATAAAAA [XGTACX_negctrl_site17],7.65 ± 0.57
4,TTCCAAAAAGTTATTACACACATATGTGCACATATA [CACACA_site6465],10 ± 0.4
5,AGAATATTATATTATGCATGCATATAGAAAAATATA [TGCATGCA_site302],7.81 ± 0.73
6,ATAAAATATTTTTGAACATGCAGGTAAAAAATAAAA [TGCATGCA_site1019],9.78 ± 0.76
7,ACTTATAAAAACATATACCCCATCGCATTTTTTCCA [XGTACX_negctrl_site177],7.88 ± 0.75
8,TGTAATATAAAATTTTGTACTCAAAAATTTATATAT [XGTACX_site3252],7.66 ± 0.22
9,AATTTTTTATATGTCACACATTTATTATTATTATTA [CACACA_site4198],7.76 ± 0.64
10,TTTTTTTTTCTTTTCAAACACACAATTGGTATATAT [CACACA_site3321],7.88 ± 0.61
11,TGACTGTAGATATTTTGTACATAACCTAATATATAT [XGTACX_site970],7.81 ± 0.54
12,CGTATAAATATACGTGCATGTAACTTTTTCTATATT [TGCATGCA_site981],8.96 ± 0.71
13,CTATTTATTTTTGATGCATGCCAAATATAGAAAAAA [TGCATGCA_site368],8 ± 0.59
14,TAGTAGTTATCACTAACATGCAATAATATTATTTAA [TGCATGCA_site161],7.69 ± 0.68
15,TTATGTACAATTTCTTCTTTCTTTTTTCCTAAAGAC [CACACA_negctrl_site1193],7.68 ± 0.67
16,TTTTTTTTTTTTTTTTGTACACATAATATGAATAAT [XGTACX_site2661],8.14 ± 0.49
17,ATAACATATATATATACACACACATATATATATGAA [CACACA_site7983],7.92 ± 0.35
18,ATAATATAATACGAAGGTACACATTTTCTTAATATA [XGTACX_site7947],7.63 ± 0.47
19,ATATATTTTTTGAATACACACATATTATAGGTAATA [CACACA_site6709],7.76 ± 0.47
20,TATTTAAAAAGAAAAAAAAAAAAAAAAATACATATA [CACACA_negctrl_site164],7.46 ± 0.27
21,AAAAAAAAAAAATATACACACTAATATATTTTTTTA [CACACA_site4604],7.66 ± 0.2
22,TATTAAATTTATCGGAGTACATTTAAATGTATATAC [XGTACX_site7975],7.98 ± 0.48

row,Sequence,gcPBM binding intensity (ln)
1,TATATACGCAAACACACACACACATACACCCACATA [CACACA_site1724],8.09 ± 0.31
2,TATTACTATGTTATAACTTTTTTAAACGTGATCATA [TGCATGCA_negctrl_site128],7.49 ± 0.51
3,TATGTGTAATATTTTTGTACAGAAAAAAAAAAAAAA [XGTACX_site7075],8.17 ± 0.86
4,AAAAAAAAAAAAAACACACACATGCACATCATATTA [CACACA_site4467],8.58 ± 0.59
5,AAAAAAAAAATTAAAACATGCATAAATAAATATATT [TGCATGCA_site866],7.61 ± 0.82
6,TCATTTCACAGACACACACACACAATATATTTCCTT [CACACA_site9295],8.28 ± 0.58
7,ATATTTTTATTAGTAGTGCAATTTAGTGTATATATA [GTGCAC_site9542],9.71 ± 0.34
8,TTTAATCAACAAAATCTACACACTAATATGAAATAT [CACACA_site9250],7.51 ± 0.57
9,ATACACGTTTTACAATGTACAGAAAGTATACATAAT [XGTACX_site4585],7.88 ± 0.56
10,GTATTTTTTTTCTTTTGTACATATATATAAAGAATA [XGTACX_site4569],8.25 ± 0.44
11,TATTATATATATAAATGTACATATTATTTTTCTTTT [XGTACX_site8670],7.62 ± 0.56
12,AAGAATTTTCGATTTGCACACATTTGTAAAATAAAA [CACACA_site2354],9.16
13,TTTTAAAATAAAAAAATAAAAAAAGGGGAAAAAAAA [CACACA_negctrl_site847],7.92 ± 0.25
14,CATATCAAAAAAAAATGTACACGTATATACAATACA [XGTACX_site2660],7.77 ± 0.24
15,TATAATATGTTTGATGGTACACGTAAACACCTTGCA [XGTACX_site1643],7.79 ± 0.58
16,ATATACTTATATATTGCACACATCTAATATTTTGAA [CACACA_site3165],10.5 ± 0.57
17,ATAACTAAATTATATTGTACAAAATAATTATATATT [XGTACX_site1188],7.74 ± 0.53
18,AGACAATTTTTTAGTACACACATATAGATATATAAA [CACACA_site6832],8.24 ± 0.23
19,ATAATTATACAAAAGCGTACACGATATAAATCTACG [XGTACX_site8115],7.92 ± 0.28
20,CTTAAATCCATAATATGTACTTAAAAAGAAAAAATA [XGTACX_site4765],7.47 ± 0.51
21,GTATTATAAAAAGGAAGTACATATATACATATTATA [XGTACX_site1271],7.69 ± 0.47
22,ATATGAACATTAAAAAAGTAAGGTATTCTCCCCTCT [CACACA_negctrl_site1299],7.71 ± 0.54

row,Sequence,gcPBM binding intensity (ln)
1,TTATAAAAAAAAAAAAAAAAAAAAACCAATATAATA [CACACA_negctrl_site968],7.3 ± 0.48
2,TTTATTCTAAAATATTAAAAATGATTTGTTTTTTCA [CACACA_negctrl_site1751],7.04 ± 0.42
3,TAATATTACATTTATTGTACTTTGTTTTTATTTTAT [XGTACX_site1605],7.83 ± 0.36
4,AATTATACTCACGTTACACACACACTAGATATATAT [CACACA_site6133],8.32 ± 0.69
5,TTTTTTTTTTTTTTTTGTACATATATATAAAAAATA [XGTACX_site2772],8.07 ± 0.67
6,CCCACAATGGTTTATATACACACTGTTGCAAATTCT [CACACA_site3066],7.92 ± 0.61
7,ATTGAAAAAATACAATGTACATAGTAATACAAAGAA [XGTACX_site4142],8.18 ± 0.62
8,TAATACTTAATGAACACATGCACATATACATAGTAT [TGCATGCA_site496],7.88 ± 0.61
9,TGTTTCTAAGAATTTACACACAAAATATTTCTACAT [CACACA_site7846],7.7 ± 0.57
10,AAAAAAAAAAATTGCACACAAAAAAAAAAAAAAAAA [CACACA_site2073],8.9
11,TTAAAAATTAAAAGTAGTACATATAATATAAACATT [XGTACX_site424],7.8 ± 0.2
12,ATGTATCGTAACAAATGTACAAGAGGATGTTTAGAC [XGTACX_site3355],8.22 ± 0.61
13,GATATATTTTGTTATGTAGATGTTGGTAGGAATTTT [GTGCAC_negctrl_site485],7.74 ± 0.57
14,GTATTTATATGATTAACACACATATGTGGATTAATA [CACACA_site1315],7.86 ± 0.45
15,TATTGATAAAAAATATGTACATATATACATATATAT [XGTACX_site3821],7.78 ± 0.43
16,ATATATATATATATATGTACGTAAACAAAAATTTAT [XGTACX_site6780],9.37 ± 0.47
17,TATATAACTACAAGAACACACATATAAATATAAATA [CACACA_site7210],7.71 ± 0.58
18,GTAATTAAGATATATACACACAAAGGCTATTAAATA [CACACA_site6604],7.58 ± 0.57
19,AAAAATAAAATAAAATAAAATAAAAATAAAGAAAAA [CACACA_negctrl_site808],7.69 ± 0.57
20,ACAAATAAAAAAATTACACACATATATAATATATAT [CACACA_site1361],7.83 ± 0.64
21,AGTAGTCTGGAGAAAAGTACACAGTATCTGGTAACA [XGTACX_site2034],7.85 ± 0.45
